From paper PMC10726135 come the findings set out here.

The list shows a part of the results. At the low end of the ranking, values are background and their order means little. Measured with an extract: partners may take part in the binding.

This assay has as its target T1, HNF4alpha8 (COS-7 nuclear extract) (UniProt P41235-5).
T1 sequence: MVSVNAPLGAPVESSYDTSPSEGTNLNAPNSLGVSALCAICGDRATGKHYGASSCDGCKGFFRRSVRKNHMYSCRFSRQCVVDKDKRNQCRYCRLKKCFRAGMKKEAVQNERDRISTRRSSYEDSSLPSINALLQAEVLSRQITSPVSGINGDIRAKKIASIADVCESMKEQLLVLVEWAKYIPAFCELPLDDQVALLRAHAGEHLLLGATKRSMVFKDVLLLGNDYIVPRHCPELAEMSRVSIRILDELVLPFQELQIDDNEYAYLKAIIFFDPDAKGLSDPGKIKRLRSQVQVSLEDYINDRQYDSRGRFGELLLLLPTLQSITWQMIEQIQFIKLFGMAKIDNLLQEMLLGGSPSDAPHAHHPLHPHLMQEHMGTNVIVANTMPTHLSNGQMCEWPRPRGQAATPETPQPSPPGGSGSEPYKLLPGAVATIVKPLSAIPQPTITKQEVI
Nature of the assay: protein-binding microarray. To be noted: COS-7 nuclear extract on double-stranded Agilent 4x180k PBM; binding buffer, salt, pH and temperature not given; high values mean tight binding; double strand, one strand shown; sequences stand for … in …GCCTAGGGAGATTAGAGTATCGGTCGA
For ATTTACATCAAACACTCACTGGGAGAGAAA, the binding signal (log2 normalized intensity) was -0.282. The same measure for CCCTTCCCCGCTCTCCCCGCCCCCTCTCCG: 5.95.

For ATGCAGTGGGTCAGTCTGAGATAGTCATTC, the binding signal (log2 normalized intensity) worked out at 1.12. The value for CTCATCCATGAATCCTGTGGTAGCCACTCT was -1.07. The value for ACTTTGGCTACTCAGTTTTTTGGCCGTCTT was 1.01; that for ACATTGTGTATGGACTGTAATACACAAGCA was 1.16. The value for ACGGGCCTGAAAACTGGAGGCCGCGACAAG was -1.22. For the sequence CAAACAACAGGCATCAACTCTATCATACTC, the binding signal (log2 normalized intensity) was -1.35. The same measure for GGTGTCCAGATTCCAGCCTCCTGCTCTGGG: -1.33; for CTCAAAGTGCTTTTCAATCTTATTTTTACT: -1.16. As for TGGTCCTGGAACTCAAAGGTCAAATGACAG, the binding signal (log2 normalized intensity) came out at 4.49. For AACAAGGATAGCGTCATCAGTCCAGGAGGG, the binding signal (log2 normalized intensity) was -1.35. With AAACCAACCCTGCCAAAGGTTAAAATTCCC, the binding signal (log2 normalized intensity) is 1.83. As for ACATGAGCCTCTTTATCTCTCTCTCTTTCT, the binding signal (log2 normalized intensity) worked out at 0.312. The same measure for AGTGACCCTGTCTCTCAGTCTCTGTGGGAG: 1.23; for AAGGTCACCCGTATTCCTTAGCTTATCGTC: 0.265; for ACCAGCAATTTTCAGGGTTAAAAGTTCTGC: 1.05. The value for GCATATGAGTAATGTGAAGACTTCGCTGGA was -1.22; that for GGAACACAATAGGAATTCAACCAATGTGGA was -1.15. Turning to GACTCATCTCCAAACGAGACTTTGGACTTT, the binding signal (log2 normalized intensity) was 9.58.

Turning to CCGCAGCGCTGGTGGCTGCAAGGTTTGTGT, the binding signal (log2 normalized intensity) was 0.472. The same measure for TCCCTGCAGTCAGGACTCTGGGACCGCAGG: -1.31; for TTCTTTTCCCAAACCACGTTTCTGTGGTCA: 1.21; for GGTGCCAGAATTGCTGCTCCCCCTCCCAAA: 4.91.

Consider GGTCACTCTTGCTATGCCTTAGCAAACAGA, for which the binding signal (log2 normalized intensity) is -1.3. For ACCAGGCCGGGTCACGTGGGTCCAGGGTCA, the binding signal (log2 normalized intensity) worked out at 3.6. The value for TACCCCCATACTTTATTTAGCTTTAGTTCA was 1.43; that for AATGGAAGGCAGTGTTCCAAAGTGTAAAAG was 0.755; that for CAGTATAGTTAGGGCCTTGCAGGGGGCCTC was -1.08.

As to CTTTAAACTGGTGTGTCTTGCCTTTCCACC, the binding signal (log2 normalized intensity) is 0.447. Turning to CAGTGGCTGAGACAATGAGTGCTTCAGTCC, the binding signal (log2 normalized intensity) is -0.568. The same measure for CTAGGCTCCAGGGCACTGCCCTTTGGAACC: 7.42; for CCAGATTCTCTCACTGCTCTGGCCACTCCC: -1.34; for CCTGCAAGGATTGATCAGCACATGAAGGTC: 1.8. The value for CCTGCACCTGAACTTTGCTCTGTGACACAA was 4.87; that for GAAGGCAGCCAAACAGAGGCTGAAATGGTT was -1.36; that for CACACACCTGTGCAAACATTGGTTGCAAAA was -1.27. The value for TCCCTCCGTGGGGCTCCTTTGATCTCCGTG was 0.909; that for TCTTGACATCTCTCTCTGCAGCTGAGTAGA was -0.659; that for AAAAGTCTCAGGGGCCTTGCAATGAGGCGA was -1.25. With GTGACTACCTGGTTAAAAGGACAACCTTCG, the binding signal (log2 normalized intensity) is -0.397. The value for CAGAGCTGTCGTCCCAGGGCAAAGGTCACC was 8.47; that for ACAGGAAAAAAAAAAATTACTGACCCTTGC was 3.04; that for TCAGTTCCTATTTCAACATCCTCTCAGGTC was 1.22. TAACAAACATTACTAACTGGACTTTATCTA: the binding signal (log2 normalized intensity) worked out at 3.68. The value for TTTCAACCCTGTGATGACCCCATACTTCAG was 4.29; that for CTGTTGAACATTAACTCTCTGTGAGTGTGT was 1.65; that for GAAAGGGGCCTCAGAGAAAGCCTGTTTGCT was -1.38. With TGGAGGAGCTGAACTGTAACCTCAAAGGAG, the binding signal (log2 normalized intensity) is -1.22. The same measure for TTTGCCTGAACTTTAAACTGGTGTGTCTTG: 2.95. The value for GTGGCTAGAACCCAGGCACAGGTCCTACTC was -1.39; that for TCGGCTTCATTAGCAAATAACAAAGGGCAC was 3.74; that for TGAGGCCCCAGTGTCAATTCTCATTCATCC was -0.101. The value for AAAATAGCCAAAATAAAGCAGCAAACCAGA was -1.36; that for ATCAGCGTTGAGCCTTTTGTCCCAAGGAGA was 0.69; that for GGGAGATCTTCAGTAAGAGGATTTCTTCGC was -1.26. Take CACTGAGATAAAAATGGCCAAAGGTTGCCA: the binding signal (log2 normalized intensity) was determined as 2.84. The same measure for GAATTTCAGAAGCAGGTCAATAGGGCAGGG: 3.03; for TATCTGTTTATTTTGCAATTAACAAAGAGA: 0.493; for GGAAGGGAGAGATAAGAAAAACTGAGCTTT: -1.25. The same measure for ATCCAGAGGTCACCCAGAGCGTCCCACCTG: -0.956; for GCAAACTATGTGAGGAATCTAAGATAAGCA: -1.14.

Turning to CAGGCTGTTTTCCTATAGATTTGTTAAATC, the binding signal (log2 normalized intensity) stood at 1.38.

Take GTTCGATAAAAAACAATTTACAACCTGCTC: the binding signal (log2 normalized intensity) was -1.4.

In the case of TTGCAGAAGGCAGCCAAACAGAGGCTGAAA, the binding signal (log2 normalized intensity) is -1.28.

Regarding AAGGTATCCTCCTAGAGTCCAAGGTATAAA, the binding signal (log2 normalized intensity) is 2.65.

In the case of GGGGGGTGGGGTGGAAGCTATGCCTGAGGC, the binding signal (log2 normalized intensity) was -1.29. The value for GAACCAAGAGAGCCATTGGTGTAACTCTGG was -1.21; that for CTTAAATTGTGCTGTGTCAGAGTTGTCCTG was 2.11; that for AAGGCCAAGCCAGTTTCCAGGGAGGAGAGA was -1.26. Regarding GAATGGAGACACACCTGCGGTGACTGGAAG, the binding signal (log2 normalized intensity) was -1.34. With AAGACTCAGTCGGCTGTCAAATCACTGAAG, the binding signal (log2 normalized intensity) was -1.34. The same measure for AAGAAGAGCCCAGACAAGCATTCTGCTGAA: -1.2.
